Substitutions are numbered along the chain they refer to. Numbers in names are those of the source.
B1: mCherry-DDX6(WT), shRNA-resistant [not stated] / GFP-Ago2(S387A), phospho-null mutant [not stated] (parent)
chain 1: MSTARTENPVIMGLSSQNGQLRGPVKPTGGPGGGGTQTQQQMNQLKNTNTINNGTQQQAQSMTTTIKPGDDWKKTLKLPPKDLRIKTSDVTSTKGNEFEDYCLKRELLMGIFEMGWEKPSPIQEESIPIALSGRDILARAKNGTGKSGAYLIPLLERLDLKKDNIQAMVIVPTRELALQVSQICIQVSKHMGGAKVMATTGGTNLRDDIMRLDDTVHVVIATPGRILDLIKKGVAKVDHVQMIVLDEADKLLSQDFVQIMEDIILTLPKNRQILLYSATFPLSVQKFMNSHLQKPYEINLMEELTLKGVTQYYAYVTERQKVHCLNTLFSRLQINQSIIFCNSSQRVELLAKKISQLGYSCFYIHAKMRQEHRNRVFHDFRNGLCRNLVCTDLFTRGIDIQAVNVVINFDFPKLAETYLHRIGRSGRFGHLGLAINLITYDDRFNLKSIEEQLGTEIKPIPSNIDKSLYVAEYHSEPVEDEKP
chain 2: MYSGAGPALAPPAPPPPIQGYAFKPPPRPDFGTSGRTIKLQANFFEMDIPKIDIYHYELDIKPEKCPRRVNREIVEHMVQHFKTQIFGDRKPVFDGRKNLYTAMPLPIGRDKVELEVTLPGEGKDRIFKVSIKWVSCVSLQALHDALSGRLPSVPFETIQALDVVMRHLPSMRYTPVGRSFFTASEGCSNPLGGGREVWFGFHQSVRPSLWKMMLNIDVSATAFYKAQPVIEFVCEVLDFKSIEEQQKPLTDSQRVKFTKEIKGLKVEITHCGQMKRKYRVCNVTRRPASHQTFPLQQESGQTVECTVAQYFKDRHKLVLRYPHLPCLQVGQEQKHTYLPLEVCNIVAGQRCIKKLTDNQTSTMIRATARSAPDRQEEISKLMRSAAFNTDPYVREFGIMVKDEMTDVTGRVLQPPSILYGGRNKAIATPVQGVWDMRNKQFHTGIEIKVWAIACFAPQRQCTEVHLKSFTEQLRKISRDAGMPIQGQPCFCKYAQGADSVEPMFRHLKNTYAGLQLVVVILPGKTPVYAEVKRVGDTVLGMATQCVQMKNVQRTTPQTLSNLCLKINVKLGGVNNILLPQGRPPVFQQPVIFLGADVTHPPAGDGKKPSIAAVVGSMDAHPNRYCATVRVQQHRQEIIQDLAAMVRELLIQFYKSTRFKPTRIIFYRDGVSEGQFQQVLHHELLAIREACIKLEKDYQPGITFIVVQKRHHTRLFCTDKNERVGKSGNIPAGTTVDTKITHPTEFDFYLCSHAGIQGTSRPSHYHVLWDDNRFSSDELQILTYQLCHTYVRCTRSVSIPAPAYYAHLVAFRARYHLVDKEHDSAEGSHTSGQSNGRDHQALAKAVQVHQDTLRTMYFA
B2: mCherry-DDX6(WT), shRNA-resistant [not stated] / GFP-Ago2(S387D), phospho-mimic mutant [not stated] (parent)
chain 1: B1 chain 1
chain 2: B1 chain 2 with A387D

Variants of: B1
Assay: GFP-trap pull-down, Western blot quantification
Conditions: with GFP-Ago2(S387A), shDDX6 with shRNA-resistant mCherryDDX6(R386E), partner GFPAgo2(S387A), lentivirally transduced neurons, parent: 0.9, read off a plot

Row | Variant | response
1 | chain 1 R386E | 0.23

Variants of: B2
Assay: GFP-trap pull-down, Western blot quantification
Conditions: with GFP-Ago2(S387D), shDDX6 with shRNA-resistant mCherryDDX6(R386E), partner GFPAgo2(S387D), lentivirally transduced neurons, parent: 1.4, read off a plot

Row | Variant | response
2 | chain 1 R386E | 0.22

Source: article PMC10847504
